Experimental data taken from PubChem BioAssay AID493208 (National Center for Advancing Translational Sciences (NCATS), 2011).
In all, about 44,000 compounds went through this assay and about 340 (0.77%) were called active. Roughly 5% stayed inconclusive and do not appear here. The call rests on the fitted dose curve; in most records, active means well fitted inhibition curve with a large enough effect; inconclusive means small, poorly fitted or top-dose-only effect; inactive means flat fitted curve, though single readings scatter. This is one part of the list.

Test: Acumen qHTS Assay for Inhibitors of the mTORC1 Signaling Pathway in MEF (Tsc2-/-, p53-/-) Cells: Sytravon;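 further: plate controls were DMSO for no effect and rapamycin for full effect; nearly all actives have a fitted effect of over 50% in size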
Conditions: phospho-rpS6 immunofluorescence/PI, 24 h; series mostly up to 38.3 µM; activity change, negative = inhibition: at the top concentration
Summary of the method: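 Read-out: phospho-S6 Alexa-488 intensity over PI intensity per well, scored as % active cells using thresholds from rapamycin (7.5 nM) and DMSO controls. Tsc2-/-, p53-/- MEFs exposed to compound for 24 h; PI cell count recorded as viability.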

Activity change, negative = inhibition, inactive:
O=C(Nc1ccccc1C(F)(F)F)C1CCN(S(=O)(=O)Cc2ccccc2)CC1 8.74%, CCc1ccc(C(=O)c2cn(CC(=O)Nc3cc(OC)ccc3OC)c3nc(C)ccc3c2=O)cc1 1.69%, Cc1oc2cc3oc(=O)c(CC(=O)NCc4ccccc4)c(C)c3cc2c1C 1.29%, Cc1ccc(-n2c(=O)c3sc4ccccc4c3n(C)c2=O)cc1F -12.5%, COc1cccc(NC(=O)c2oc3ccccc3c2NC(=O)c2ccc(F)c(F)c2)c1 -15.5%, Cc1ccc(C)c(NC(=O)c2ccc3c(c2)CCCN3S(C)(=O)=O)c1 -2.44%, COCCNC(=O)CCC(=O)NNc1nc2ccccc2c2nc(-c3ccccc3)nn12 1.82%, CCOc1ccc(NC(=O)CSc2ncc3c(n2)-c2ccccc2N(C)S3(=O)=O)cc1 1.04%, Clc1ccccc1-c1nc(Nc2ccccc2)nc2ccc(Br)cc12 -4.24%, Cc1ccc(NC(=O)N2CCC(n3c(C)nc4cccnc43)CC2)c(Cl)c1 0%, Cc1ccc(NC(=O)c2cc(S(=O)(=O)N3CCOCC3)c(Cl)cc2Cl)cc1 9.66%, COc1ccc(CNC(=O)Nc2cn(CC(C)C)c(=O)c3ccccc23)c(OC)c1 -21.5%, Cc1cc(C)cc(NC(=O)C2CCN(S(=O)(=O)c3cccc4nonc34)CC2)c1 -6.89%, CCc1ccc(CNC(=O)c2ccc(CSc3nc4ccncc4n3Cc3ccccc3)cc2)cc1 -9.83%, CCC(Oc1ccccc1)C(=O)Nc1nnc(S(=O)(=O)Nc2ccccc2)s1 (stereo not drawn) 2.78%, COC(=O)CCc1sc(Nc2ccc(OC)cc2)nc1-c1ccc(OC)cc1 -3.37%, Cc1ccccc1NC(=O)CC1C(=O)NCCN1C(=O)c1cccc(Cl)c1 (stereo not drawn) -7.25%, CC(=O)c1ccc(N2CCN(C(=O)NCc3noc4ccc(C)cc34)CC2)cc1 2.69%, Cc1noc(-c2ccccc2OCC(=O)Nc2cccc([N+](=O)[O-])c2)n1 -0.696%, CCOC(=O)C1CCCN(S(=O)(=O)c2ccc3[nH]c(=O)ccc3c2)C1 (stereo not drawn) -24.6%, Cc1ccc(S(=O)(=O)NCc2nc3nc(C)cc(C)n3n2)c(C)c1 0.667%, CCN1c2ccccc2-c2nc(SCC(=O)Nc3ccc(C)c(Cl)c3)ncc2S1(=O)=O -0.202%, CCOC(=O)c1ccccc1NC(=O)CSc1nc2ncccc2[nH]1 1.86%, COc1ccc(-c2nnn3c2nc(N2CCCC(C)C2)c2ccccc23)cc1 (stereo not drawn) -8.53%, Cc1ccc(C)c(N(C)C(=O)C2CCN(S(=O)(=O)c3cccc4nsnc34)CC2)c1 -25.9%, CC(=O)c1cc(C(=O)Nc2cccc(C)c2)c2ccccn12 -3.26%, COc1ccc(N2CCN(C(=O)CCS(=O)(=O)c3cc4c(cc3Cl)NC(=O)CO4)CC2)cc1 7.13%, CCOC(=O)c1ccc(NC(=O)CC2C(=O)N(c3ccccc3)C(=O)N2Cc2cccs2)cc1 (stereo not drawn) 0.352%, Cc1ccc(S(=O)(=O)c2[nH]c(-c3ccccc3)nc2SCC(=O)O)cc1 -0.85%, COc1ccc(N2CCN(CC(O)COc3ccc(C(C)(C)C)cc3)CC2)cc1 (stereo not drawn) 2.04%, CCOc1ccc(CNC(=O)c2ccc3nc(Cc4ccc(OC)cc4)oc3c2)cc1OC 2.85%, CCN(C(=O)Cc1c(C(=O)O)[nH]c2ccccc12)c1ccc(OC)cc1 6.47%, CCc1ccc(CN(C(=O)c2nc(SC)ncc2Cl)C2CCS(=O)(=O)C2)cc1 (stereo not drawn) -2.89%, CCC(=O)N1c2ccccc2CC1C(=O)N1CCN(c2ccccc2)CC1 (stereo not drawn) 0%, Cc1ccc(Cl)cc1NC(=O)c1ccc(-c2nc(CSc3ccccc3)c(C)o2)cc1 -9.32%, CC(C)Cc1nn2c(=O)cc(COC(=O)c3ccc(NC(=O)c4cccs4)cc3)nc2s1 22.2%, CC(=O)c1ccc(N2CCN(C(=O)C3CCN(S(=O)(=O)c4cccc5nonc45)CC3)CC2)cc1 0.379%, O=S(=O)(NCCc1csc(-c2ccc(F)cc2)n1)c1ccc(Cl)cc1 -14.8%, O=c1c2c3c(sc2nnn1Cc1ccc(Br)cc1)CCCC3 2.48%, CCOc1ccccc1NC(=O)Cn1c(=O)ccc2cc(S(=O)(=O)N3CCC(C)CC3)ccc21 -0.903%, CCOC(=O)c1ccc(NC(=O)CCc2c(C)nc3c(c(C)nn3C)c2C)cc1 -0.94%, Cc1ccc(OCCCn2c(C3CC(=O)N(c4cccc(Cl)c4)C3)nc3ccccc32)c(C)c1 (stereo not drawn) 0.559%, CCOC(=O)C1CCN(C(=O)C2COc3ccccc3C2)CC1 (stereo not drawn) -3.6%, O=C(c1cc2ccccc2oc1=O)N(Cc1cccc(Cl)c1)C1CCS(=O)(=O)C1 (stereo not drawn) 1.42%, Cc1ccc(CN2CCSc3ccc(C(=O)N4CCN(c5cccc(C)c5C)CC4)cc32)cc1 -2.03%, O=C(CSc1nccn1Cc1ccc(Cl)cc1)NC1CCCC1 -7.17%, COc1ccc(-c2cnc(C)o2)cc1S(=O)(=O)Nc1ccc(C)c(F)c1 1.92%, COc1cccc(-n2ccnc2SCC(=O)Nc2cccc(C)c2C)c1 -3.4%, CCc1ccc(NC(=O)Cn2cnc3sc(C)c(S(=O)(=O)N4CCC(C)CC4)c3c2=O)cc1 -1.89%, CCCC(=O)NCC(c1ccc2c(c1)OCO2)N1CCN(c2ccc(F)cc2)CC1 (stereo not drawn) -7.29%, COc1ccc(-c2nc3c(C#N)c[nH]n3c2NC2CCCCC2)c(OC)c1 -10.1%, COc1ccc(-n2ncc(C(=O)NCc3ccccc3)c2C2CCN(C(=O)OC(C)(C)C)CC2)cc1 -3.86%, Cc1ccc(OCc2nc3ccccc3n2CC(C)C)cc1 -7.49%, COc1ccc(CCNC(=O)CCn2c(=O)c3cccn3c3ccc(F)cc32)c(OC)c1OC -0.265%, CCOc1ccccc1CNC(=O)Nc1cn(CC(C)C)c(=O)c2ccccc12 -0.0544%, CC(Oc1ccccc1)C(=O)Nc1nc2ccc(S(N)(=O)=O)cc2s1 (stereo not drawn) 0.816%, Cc1cc2c(cc1S(=O)(=O)NCc1ccc(N(C)C)cc1)OCC(=O)N2 -0.557%, CCCN(C(=O)c1cc2c(s1)-c1ccccc1SC2)c1ccccc1F 1.84%, COc1ccc(N(CC(=O)NC(C)c2ccccc2)S(=O)(=O)c2c(C)noc2C)cc1 (stereo not drawn) -2.21%, CC1(c2ccc(Cl)cc2)CC(C)(C)N(C(=O)c2ccccc2)c2ccccc21 (stereo not drawn) -0.763%, Cc1ccc(CN2CCC(CNc3ncnc4onc(-c5ccc(Cl)cc5)c34)CC2)cc1 5.03%, CCOC(=O)c1noc2ncnc(N3CCN(c4ccccc4OC)CC3)c12 11.9%, CCOC(=O)c1c(C)c(-c2ccccc2)n(CC(=O)Nc2cc(OC)cc(OC)c2)c1C -3.92%, COc1cc(C2NC(=O)NC(C)=C2C(=O)Nc2cc(C)cc(C)c2)ccc1O (stereo not drawn) -7.58%, CC(C)(C)NS(=O)(=O)c1ccc2nc(NC(=O)c3cccnc3)sc2c1 0.0901%, COC(=O)CNC(=O)Nc1cc(C(=O)NCc2ccc(C)cc2)ccc1N1CCCC1 6.97%, CC(=O)N1c2ccccc2CC1C(=O)N1CCN(c2ccc(F)cc2)CC1 (stereo not drawn) 14%, COc1ccc(C)cc1NC(=O)c1oc2ccc(S(=O)(=O)N(C)C3CCCCC3)cc2c1C 6.03%, COC(=O)C1CCN(S(=O)(=O)c2cc3c4c(c2)C(C)C(=O)N4CCC3)CC1 (stereo not drawn) -13.3%, CC(C)(C)c1cc(C(C)(C)C)c2oc(=O)c(-c3nc4ccccc4[nH]3)cc2c1 5.26%, O=C(CSc1nc2ccccc2c2nc(-c3ccccc3)nn12)Nc1ccc(Br)cc1 1.17%, CCc1cc(C(=O)Nc2c(C)nn(Cc3ccc(C)cc3)c2C)no1 -14.7%, Cc1ccc(Cn2c(SCC(=O)NCc3ccc(Cl)cc3)nc3ccsc3c2=O)cc1 3.46%, Cc1ccc(NC(=O)CN2CCCN(Cc3cc(C)ccc3C)S2(=O)=O)c(Cl)c1 0%, COc1cccc(N2CCN(C(=O)C3CCC(CNS(=O)(=O)c4ccc(Br)s4)CC3)CC2)c1 (stereo not drawn) -6.03%, CCS(=O)(=O)N1CC(=O)N(c2ccccc2C)C(C)(C(=O)NC2CCCCC2)C1 (stereo not drawn) 0.643%, COCCCNC(=O)Cn1c(=O)n(-c2ccc(C)cc2)c(=O)c2c1c1cc(C)ccc1n2C 1.22%, Cc1ccc(Cl)cc1N1CCN(C(=O)c2cn(C3CCCCC3)c(=O)c3c2c2ccccc2n3C)CC1 -21.9%, COc1ccc(NC(=O)CSc2nnc(-c3ccc(C)cc3)o2)cc1 -4.39%, CN(C)c1ccc(C(CNC(=O)COc2ccc(Cl)cc2)N2CCOCC2)cc1 (stereo not drawn) 18.6%, COc1cccc(-c2nc3c(c(SCc4ccccc4)n2)Cc2c(CO)cnc(C)c2O3)c1 -7.8%, NC(=O)c1cc(S(=O)(=O)NCc2ccccc2)cs1 -6.37%, CN(C(=O)CCNC(=O)Cn1cnc2ccccc2c1=O)c1ccccc1F 3.22%, CCCn1c(=O)n(-c2ccccc2)c(=O)c2sc3ccccc3c21 2.34%, CCOc1ccc(CCNC(=O)CN2CCN(Cc3ccc(F)cc3Cl)C2=O)cc1OCC 1.06%, C=CCc1c(C)nc2nc(SCC(=O)Nc3ccccc3CC)nn2c1C 9.96%, CCCOc1ccccc1C(=O)N1CCC(c2nc3ccccc3s2)CC1 -2.04%, CCOC(=O)CSc1nc2cc3c(cc2c(=O)n1CCCC(=O)NCc1ccc2c(c1)OCO2)OCO3 0.167%, COC(=O)CN1C(=O)CSc2ccc(S(=O)(=O)Nc3ccc(Cl)cc3C)cc21 0.0211%, Cc1ccc2ccc(C(Nc3ccccn3)c3ccccc3)c(O)c2n1 (stereo not drawn) -7.2%, CC(C)Cc1nn2c(=O)cc(COC(=O)c3cccc(NC(=O)CCc4ccccc4)c3)nc2s1 0%, C=Cc1ccc(CSc2nc(-c3ccc(OC)cc3)nc3c2Cc2c(CO)cnc(C)c2O3)cc1 -3.33%, NCCc1nnc(SCc2ccc(Cl)cc2)o1 15.2%, Clc1ccc(CCNc2ncnc3c2c(-c2ccccc2)cn3-c2ccccc2)cc1 12.3%, COc1ccc(C(=O)CN2C(=O)N(c3cc(C)cc(C)c3)S(=O)(=O)c3ccccc32)cc1 -3.9%, COc1ccccc1CNC(=O)Cn1ncc2c(=O)oc3ccc(C)cc3c21 -15.2%, Cc1ccc(Nc2c(-c3ccc(C)cc3)nc3cnccn23)cc1 -9.48%, CCCCC(=O)Nc1cccc(OCc2cc(=O)n3ccccc3n2)c1 8.45%
